Experimental data published in patent US20210047304A1, “Bromodomain Inhibitors” (AbbVie Inc., priority 2016, published 2021).
Read-outs that look alike come from different tables or passages of the source.

Target: BRD4 (BDII_E352-M457) (Homo sapiens, UniProt O60885)
Experiment: TR-FRET bromodomain binding assay, BRD4 BDII

Compound | Ki [nM] | Ki (mean Ki, 4 nM His tagged BRD4 (BDII_E352-M457), 30 nM Alexa647 probe, Ki calculated from IC50, probe Kd and probe concentration) [nM]
Cc1cc(F)cc(C)c1Oc1ccc(C(C)(C)O)cc1-c1cn(C)c(=O)cc1O[C@H]1CC[C@H](N2C(=O)COC2=O)CC1 [Example 82, 3-[trans-4-({5-[2-(4-fluoro-2,6-dimethylphenoxy)-5-(2-hydroxypropan-2-yl)phenyl]-1-methyl-2-oxo-1,2-dihydropyridin-4-yl}oxy)cyclohexyl]-1,3-oxazolidine-2,4-dione] | 3.93 | –
CC(=O)N[C@H]1CC[C@H](Oc2cc(=O)n(C)cc2-c2cc(C(C)(C)O)cnc2Oc2c(C)cc(F)cc2C)CC1 [Example 1, N-(trans-4-{[2′-(4-fluoro-2,6-dimethylphenoxy)-5′-(2-hydroxypropan-2-yl)-1-methyl-6-oxo[1,6-dihydro[3,3′-bipyridine]]-4-yl]oxy}cyclohexyl)acetamide] | 4.9 | –
methyl [trans-4-({5-[2-(4-fluoro-2,6-dimethylphenoxy)-5-(2-hydroxypropan-2-yl)phenyl]-1-methyl-2-oxo-1,2-dihydropyridin-4-yl}oxy)cyclohexyl]methylcarbamate [Example 21] | – | 2.17
Cc1cc(F)cc(C)c1Oc1ccc(C(C)(C)O)cc1-c1cn(C)c(=O)cc1O[C@H]1CC[C@H](NC(=O)C2(CNC(=O)OC(C)(C)C)CC2)CC1 [Example 104, tert-butyl [(1-{[trans-4-({5-[2-(4-fluoro-2,6-dimethylphenoxy)-5-(2-hydroxypropan-2-yl)phenyl]-1-methyl-2-oxo-1,2-dihydropyridin-4-yl}oxy)cyclohexyl]carbamoyl}cyclopropyl)methyl]carbamate] | 6.89 | –
Cc1cc(F)cc(C)c1Oc1ccc(C(C)(C)O)cc1-c1cn(C)c(=O)cc1O[C@H]1CC[C@H](NC(=O)C23CCC(NC(=O)OC(C)(C)C)(C2)C3)CC1 (relative stereo) [Example 103, tert-butyl (4-{[trans-4-({5-[2-(4-fluoro-2,6-dimethylphenoxy)-5-(2-hydroxypropan-2-yl)phenyl]-1-methyl-2-oxo-1,2-dihydropyridin-4-yl}oxy)cyclohexyl]carbamoyl}bicyclo[2.1.1]hexan-1-yl)carbamate] | 8.97 | –
Cc1cc(F)cc(C)c1Oc1ccc(C(C)(C)O)cc1-c1cn(C)c(=O)cc1O[C@H]1CC[C@H](N2C(=O)CC(C)(C)C2=O)CC1 [Example 90, 1-[trans-4-({5-[2-(4-fluoro-2,6-dimethylphenoxy)-5-(2-hydroxypropan-2-yl)phenyl]-1-methyl-2-oxo-1,2-dihydropyridin-4-yl}oxy)cyclohexyl]-3,3-dimethylpyrrolidine-2,5-dione] | 4.64 | –
CC(=O)NC[C@@H]1CC[C@H](Oc2cc(=O)n(C)cc2-c2cc(C(C)(C)O)ccc2Oc2c(C)cc(F)cc2C)[C@H]1C [Example 22, N-{[(1R,2S,3S)-3-({5-[2-(4-fluoro-2,6-dimethylphenoxy)-5-(2-hydroxypropan-2-yl)phenyl]-1-methyl-2-oxo-1,2-dihydropyridin-4-yl}oxy)-2-methylcyclopentyl]methyl}acetamide] | 170 | –
CC(=O)NC1(C)CCC(Oc2cc(=O)n(C)cc2-c2cc(C(C)(C)O)ccc2Oc2c(C)cc(F)cc2C)CC1 (stereo not drawn) [Example 32, N-[trans-4-({5-[2-(4-fluoro-2,6-dimethylphenoxy)-5-(2-hydroxypropan-2-yl)phenyl]-1-methyl-2-oxo-1,2-dihydropyridin-4-yl}oxy)-1-methylcyclohexyl]acetamide] | 34 | –
Cc1cc(F)cc(C)c1Oc1ccc(C(C)(C)O)cc1-c1cn(C)c(=O)cc1O[C@H]1CC[C@H](N2C(=O)CCC2=O)CC1 [Example 44, 1-[trans-4-({5-[2-(4-fluoro-2,6-dimethylphenoxy)-5-(2-hydroxypropan-2-yl)phenyl]-1-methyl-2-oxo-1,2-dihydropyridin-4-yl}oxy)cyclohexyl]pyrrolidine-2,5-dione] | 2.63 | –
Cc1cc(F)cc(C)c1Oc1ccc(C(C)(C)O)cc1-c1cn(C)c(=O)cc1O[C@H]1CC[C@H](N2C(=O)CNC2=O)CC1 [Example 125, 3-[trans-4-({5-[2-(4-fluoro-2,6-dimethylphenoxy)-5-(2-hydroxypropan-2-yl)phenyl]-1-methyl-2-oxo-1,2-dihydropyridin-4-yl}oxy)cyclohexyl]imidazolidine-2,4-dione] | 5.5 | –
Cc1cc(F)cc(C)c1Oc1ccc(C(C)(C)O)cc1-c1cn(C)c(=O)cc1O[C@H]1CC[C@H](C(N)=O)CC1 [Example 102, trans-4-({5-[2-(4-fluoro-2,6-dimethylphenoxy)-5-(2-hydroxypropan-2-yl)phenyl]-1-methyl-2-oxo-1,2-dihydropyridin-4-yl}oxy)cyclohexane-1-carboxamide] | 11.6 | –
Cc1cccc(C)c1Oc1ccc(CN(C)C(N)=O)cc1-c1cn(C)c(=O)cc1O[C@H]1CC[C@H](NC(=O)C2(C)CC2)CC1 [Example 115, N-[trans-4-({5-[5-{[carbamoyl(methyl)amino]methyl}-2-(2,6-dimethylphenoxy)phenyl]-1-methyl-2-oxo-1,2-dihydropyridin-4-yl}oxy)cyclohexyl]-1-methylcyclopropane-1-carboxamide] | 2.54 | –
